Data: the supplement of paper PMC12217912
Some of the results follow. The full chains were built here from the parent and the listed change. Values near 0.05 are background.

B1: TEV protease; numbered along this chain (parent)
chain: MGESLFKGPRDYNPISSSICHLTNESDGHTTSLYGIGFGPFIITNKHLFRRNNGTLVVQSLHGVFKVKDTTTLQQHLVDGRDMIIIRMPKDFPPFPQKLKFREPQREERICLVTTNFQTKSMSSMVSDTSCTFPSGDGIFWKHWIQTKDGQCGSPLVSTRDGFIVGIHSASNFTNTNNYFTSVPKNFMELLTNQEAQQWVSGWRLNADSVLWGGHKVFMVKPEEPFQPVKEATQL

Variants of: B1
Test: raw area under fraction-flipped curve 0-4 h after induction (AUC4h, not background-subtracted), DNA-recorder readout of cleavage of the substrate (dimensionless); higher = more cleavage of the substrate by the protease variant
Conditions: temperature: 34 °C; time window: 0-4 h after rhamnose induction
Method: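 In vivo DNA recorder in E. coli TOP10(DE3) ΔrhaA at 34 °C. Each TEVp single-site mutant (parent TEVp 0) is paired with a single-site variant of the 7-mer TEVs (canonical ENLYFQ|S). The substrate sits between flexible linkers in a Bxb1-sfGFP-TEVs-SsrA fusion, so cleavage stabilises Bxb1 and speeds flipping of a recombination array, read by NGS. The value is the raw area under the fraction-flipped curve over 0-4 h after rhamnose induction (AUC4h), with ≥20 reads per time point. It is not background-subtracted; inactive controls average about 0.047.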
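Also: Bxb1 expression induced with 0.2% (w/v) L-rhamnose at OD600 near 0.5, cultures sampled hourly, flipped fraction per protease–substrate barcode pair counted by paired-end Illumina sequencing.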

| Variant | area with substrate ENLYFQA | area with substrate ENLYFQC | area with substrate ENLYFQD | area with substrate ENLYFQG | area with substrate ENLYFQH | area with substrate ENLYFQI | area with substrate ENLYFQK | area with substrate ENLYFQL | area with substrate ENLYFQN | area with substrate ENLYFQP | area with substrate ENLYFQQ | area with substrate ENLYFQR | area with substrate ENLYFQS | area with substrate ENLYFQT | area with substrate ENLYFQV | area with substrate ENLYFQW | area with substrate ENLYFQY | area with substrate ENLYFQF | area with substrate ENLYFQM | area with substrate ENLYFQE |
| --- | --- | --- | --- | --- | --- | --- | --- | --- | --- | --- | --- | --- | --- | --- | --- | --- | --- | --- | --- | --- |
| V220Q | 0.119 | 0.112 | 0.0838 | 0.102 | 0.0588 | 0.0654 | 0.0573 | 0.0696 | 0.09 | 0.0622 | 0.0681 | 0.0691 | 0.111 | 0.0712 | 0.0654 | 0.0727 | 0.0936 | – | – | – |
| G35E | – | 0.05 | – | 0.0418 | 0.0347 | – | – | 0.0403 | – | – | – | 0.0355 | 0.0449 | 0.0396 | – | 0.0392 | – | – | – | – |
| G35R | – | 0.0453 | – | – | – | 0.0496 | – | – | – | – | – | 0.0532 | 0.043 | 0.0533 | – | 0.0474 | – | – | – | – |
| T72E | – | 0.1 | – | 0.0667 | – | 0.0509 | 0.0678 | 0.0616 | 0.0631 | – | – | 0.0827 | 0.0951 | 0.0623 | – | – | – | – | – | – |
| S18M | – | 0.101 | 0.0518 | 0.0972 | 0.0997 | 0.0535 | – | 0.0674 | 0.0865 | – | – | – | 0.101 | 0.0642 | – | – | 0.0787 | 0.0912 | – | – |
| L22G | – | 0.0457 | – | 0.0539 | – | – | – | 0.045 | – | – | – | – | 0.0442 | – | – | 0.0508 | 0.0492 | 0.0486 | – | – |
| N24F | – | 0.0743 | 0.0775 | 0.0707 | 0.0644 | 0.0558 | 0.0529 | – | – | 0.0589 | – | 0.0611 | 0.086 | 0.0595 | 0.0141 | 0.0645 | 0.0538 | – | 0.0721 | – |
| W212E | 0.112 | 0.121 | – | 0.0659 | 0.074 | 0.0728 | 0.0787 | – | 0.0567 | – | – | 0.0707 | 0.073 | 0.0591 | 0.0477 | 0.0514 | 0.0644 | – | 0.0537 | 0.0381 |
| W212V | 0.103 | 0.132 | 0.0387 | 0.115 | – | – | – | 0.0564 | 0.0103 | – | 0.0805 | 0.064 | 0.118 | 0.0708 | 0.058 | 0.0581 | – | 0.0787 | – | 0.0529 |
| K68R | – | 0.118 | – | – | 0.0828 | 0.0436 | 0.0707 | – | – | 0.0661 | – | 0.0583 | 0.0969 | 0.069 | – | 0.0718 | 0.0739 | – | – | – |
| G37Q | – | 0.0874 | – | 0.0709 | 0.0632 | – | – | 0.0457 | 0.0586 | – | – | 0.0492 | 0.0736 | 0.0506 | – | 0.0345 | 0.055 | 0.062 | 0.0602 | – |
| D11E | – | 0.128 | 0.0772 | 0.0897 | 0.08 | 0.0568 | 0.0578 | 0.071 | 0.0704 | 0.053 | – | 0.0648 | 0.0944 | 0.0591 | 0.0491 | – | – | 0.129 | 0.0801 | – |
| V217W | 0.057 | 0.0673 | – | 0.0427 | 0.0578 | 0.0509 | – | 0.0543 | 0.0699 | 0.0588 | – | 0.0611 | 0.0616 | – | 0.0474 | – | – | – | 0.0449 | – |
| N52G | – | 0.0722 | 0.0574 | 0.079 | – | 0.0607 | 0.0581 | 0.0558 | 0.0677 | 0.0565 | – | 0.0541 | 0.0681 | 0.0511 | 0.0569 | 0.0261 | 0.0597 | 0.0535 | 0.0827 | 0.0643 |
| E25C | – | 0.108 | 0.0658 | 0.161 | 0.0653 | 0.0559 | 0.0604 | 0.068 | 0.0924 | – | 0.0548 | 0.0586 | 0.108 | 0.0685 | 0.0681 | 0.0676 | – | 0.0715 | 0.0571 | – |
| V57R | – | 0.114 | – | – | 0.0383 | 0.0506 | 0.0594 | 0.0649 | – | – | – | 0.064 | 0.111 | 0.0891 | – | – | – | – | – | – |
| R51I | – | 0.0999 | 0.0773 | – | – | 0.0578 | 0.0541 | 0.0568 | 0.0655 | – | 0.0827 | 0.0749 | 0.0856 | 0.0633 | – | 0.0715 | 0.0773 | – | 0.0826 | – |
| L77P | – | 0.108 | – | 0.103 | – | 0.0546 | 0.0693 | 0.0572 | 0.0875 | 0.0557 | – | – | 0.0933 | 0.0872 | – | – | 0.0669 | 0.0584 | 0.0775 | – |
| S32K | – | 0.151 | 0.0775 | – | 0.0888 | 0.06 | 0.0654 | 0.0661 | 0.0756 | 0.042 | – | 0.0507 | 0.11 | 0.0694 | 0.0633 | 0.0692 | – | – | 0.0894 | – |
| K216A | 0.0677 | 0.126 | – | 0.0823 | – | – | 0.0612 | 0.0599 | – | – | – | – | 0.09 | 0.0448 | – | – | – | – | – | – |
| K216P | 0.0845 | – | 0.0487 | – | – | – | – | 0.0623 | – | – | – | 0.0613 | 0.0891 | – | – | 0.0682 | 0.0524 | 0.0752 | – | – |
| F38R | – | 0.0832 | – | 0.0554 | 0.0623 | 0.056 | – | 0.055 | – | – | 0.0567 | 0.0545 | 0.0739 | 0.0583 | 0.0428 | – | – | 0.0541 | 0.0567 | 0.0549 |
| S17C | – | 0.106 | 0.0804 | 0.144 | 0.0872 | 0.0415 | 0.0637 | 0.062 | 0.0528 | 0.0404 | – | 0.0545 | 0.0985 | 0.0667 | 0.053 | 0.0714 | 0.067 | – | – | – |
| H29F | – | 0.122 | – | 0.15 | – | – | – | 0.0753 | 0.0777 | – | 0.0689 | 0.0597 | 0.101 | – | – | 0.0468 | 0.0916 | – | 0.118 | – |
| Y12A | – | 0.134 | 0.0655 | 0.0847 | 0.0732 | 0.0821 | 0.0627 | 0.0639 | – | 0.0625 | 0.0931 | 0.0505 | 0.105 | 0.058 | 0.0578 | – | – | – | 0.0795 | – |
| Y12I | – | 0.144 | 0.0778 | – | – | 0.0735 | 0.0705 | 0.059 | 0.0722 | 0.0674 | – | 0.0516 | 0.0984 | – | 0.0565 | 0.0647 | – | – | 0.0961 | – |
| H215Q | 0.0702 | 0.0831 | – | – | 0.0542 | 0.0577 | 0.0352 | 0.0618 | 0.0529 | – | 0.0567 | – | 0.0694 | 0.0666 | 0.0581 | 0.0622 | 0.0541 | 0.0497 | 0.0539 | – |
| H215V | 0.102 | 0.0506 | – | – | – | 0.0599 | 0.059 | 0.0463 | – | – | – | 0.0589 | 0.071 | 0.057 | – | – | – | 0.0628 | – | – |
| L48T | – | 0.0684 | 0.0589 | 0.0535 | – | 0.0522 | 0.0569 | – | – | – | – | 0.0599 | 0.0728 | 0.0537 | – | – | 0.0724 | – | 0.0653 | – |
